The source of these data is patent US8067379B2, “Sulfur compounds as inhibitors of hepatitis C virus NS3 serine protease” (Schering Corporation, priority 2004, dated 2011).

The target in one assay is Recombinant heterodimeric HCV NS3/NS4A protease (strain 1a) (Hepatitis C virus genotype 1a, UniProt P27958). Description: Spectrophotometric assay for HCV serine protease inhibitory activity (chromogenic ester substrates). Type of assay: biochemical. The note with it: Table 3, sulfone compounds, rows without Prep. Ex. number; read-out: Ki* (numeric value, unlabelled structures at end of sulfone table, column without head).
As a reminder, the Ki is the dissociation constant of the complex between target and ligand, obtained from inhibition or displacement. For `C#CCCNC(=O)C(=O)C(CC1CC1)NC(=O)[C@@H]1[C@@H]2[C@H](CN1C(=O)[C@@H](NC(=O)NC1(CS(=O)(=O)C(C)(C)C)CCCCC1)C1(C)CCCCC1)C2(C)C` (stereo partly drawn), the Ki was 17 nM.
The same measure, in the same setting: the figure for `C=CCNC(=O)C(=O)C(CC1CCC1)NC(=O)[C@@H]1[C@@H]2[C@H](CN1C(=O)[C@@H](NC(=O)NC1(CS(=O)(=O)C(C)(C)CC)CCCCC1)C1(C)CCCCC1)C2(C)C` (stereo partly drawn) is 37 nM.

Staying with this assay, now noted: Table 3, sulfone compounds; HCV serine protease; read-out: Ki* range.
With `CC(C)(C)[C@H](NC(=O)NC1(CS(=O)(=O)C(C)(C)C)CCCCC1)C(=O)N1C[C@H]2[C@@H]([C@H]1C(=O)NC(C(=O)C(N)=O)C1CCC1)C21CC1` (stereo partly drawn) [Compound 304], the Ki is greater than 250 nM.
On the same count and under the same terms, the figure for `C=CCNC(=O)C(=O)C(CC1CC1)NC(=O)[C@@H]1[C@@H]2[C@H](CN1C(=O)[C@@H](NC(=O)NC1(CS(=O)(=O)C(C)(C)C)CCCCC1)C(C)(C)C)C2(C)C` (stereo partly drawn) [Compound 205] is less than 75 nM.
Take `C#CCCCNC(=O)C(=O)C(CCC#C)NC(=O)[C@@H]1[C@@H]2[C@H](CN1C(=O)[C@@H](NC(=O)NC1(CS(C)(=O)=O)CCCCC1)C(C)(C)C)C2(C)C` (stereo partly drawn) [Compound 209]: the Ki is less than 75 nM.
Same read-out and setting: the figure for `CC(C)CC(C)(CS(=O)(=O)C(C)(C)C)NC(=O)N[C@H](C(=O)N1C[C@H]2[C@@H]([C@H]1C(=O)NC(CC1CCC1)C(=O)C(N)=O)C2(C)C)C(C)(C)C` (stereo partly drawn) [Compound 193] is less than 75 nM.
Same read-out and setting: the figure for `C#CCCC(NC(=O)[C@@H]1[C@@H]2[C@H](CN1C(=O)[C@@H](NC(=O)NC1(CS(=O)(=O)CC)CCCCC1)C(C)(C)C)C2(C)C)C(=O)C(=O)NCC=C` (stereo partly drawn) [Compound 206] is less than 75 nM; for `CC(C)(C)[C@H](NC(=O)NC1(CS(=O)(=O)C(C)(C)C)CCCCC1)C(=O)N1C[C@H]2[C@@H]([C@H]1C(=O)NC(CC1CC1)C(=O)C(N)=O)C21CCCC1` (stereo partly drawn) [Compound 261] it is less than 75 nM; for `CC1(C)[C@@H]2[C@@H](C(=O)NC(CC3CC3)C(=O)C(N)=O)N(C(=O)[C@@H](NC(=O)NC3(CS(=O)(=O)C(C)(C)C)CCCCC3)C3CCCCC3)C[C@@H]21` (stereo partly drawn) [Compound 271] it is less than 75 nM.
The same measure, in the same setting: the figure for `C=CCNC(=O)C(=O)C(CC1CC1)NC(=O)[C@@H]1[C@@H]2[C@H](CN1C(=O)[C@@H](NC(=O)NC1(CS(=O)(=O)CCC(C)C)CCCCC1)C(C)(C)C)C2(C)C` (stereo partly drawn) [Compound 298] is less than 75 nM; for `CC(C)[C@@H](CS(=O)(=O)c1ccccc1)NC(=O)N[C@H](C(=O)N1C[C@H]2[C@@H]([C@H]1C(=O)NC(CC1CC1)C(=O)C(N)=O)C2(C)C)C(C)(C)C` (stereo partly drawn) [Compound 144] it is less than 75 nM.
On to `CC(C)(C)[C@H](NC(=O)N[C@H](CS(=O)(=O)Cc1ccccc1)c1ccccc1)C(=O)N1C[C@H]2[C@@H]([C@H]1C(=O)NC(CC1CCC1)C(=O)C(N)=O)C2(C)C` (stereo partly drawn) [Compound 151], for which the Ki fell in the range of 75 to 250 nM.

Still in this assay, the particulars now being: Table 3A; cells that print a number instead of a class symbol; read-out: Ki* Range.
In the case of `C=CCNC(=O)C(=O)C(CCCC)NC(=O)[C@@H]1[C@@H]2[C@H](CN1C(=O)[C@@H](NC(=O)NC1(C3CCCS3(=O)=O)CCCCC1)C(C)(C)C)C2(C)C` (stereo partly drawn) [Compound 611], the Ki came to 3.8 nM.
On the same count and under the same terms, the figure for `C=CCNC(=O)C(=O)[C@H](CCC1CC1)NC(=O)[C@@H]1[C@@H]2[C@H](CN1C(=O)[C@@H](NC(=O)NC1(C3CCCCS3(=O)=O)CCCCC1)C(C)(C)C)C2(C)C` (stereo partly drawn) [Compound 856] is 5 nM.

Still in this assay, the particulars now being: Table 3A; class symbols; read-out: Ki* Range.
Turning to `C=C(F)CNC(=O)C(=O)[C@H](CC1CC1)NC(=O)[C@@H]1[C@@H]2[C@H](CN1C(=O)[C@@H](NC(=O)NC1(CS(=O)(=O)C(C)(C)C)CCCCC1)C1(C)CCCCC1)C2(C)C` [Compound 883-bt], the Ki was less than 75 nM.
On the same count and under the same terms, the figure for `C=CCNC(=O)C(=O)[C@H](CCC)NC(=O)[C@@H]1CC2(CN1C(=O)[C@@H](NC(=O)NC1(CS(=O)(=O)C(C)(C)C)CCCCC1)C(C)(C)C)SCCCS2` [Compound 834] is less than 75 nM; for `CCC[C@@H](NC(=O)[C@@H]1CC2(CN1C(=O)[C@@H](NC(=O)NC1([C@@H]3CCCS3(=O)=O)CCCCC1)C1(C)CCCCC1)SCCCS2)C(=O)C(=O)NC1CC1` [Compound 848] it is 75 to 250 nM; for `CCCNC(=O)C(=O)[C@H](CCC)NC(=O)[C@@H]1[C@@H]2[C@H](CN1C(=O)[C@@H](NC(=O)NC1(CS(=O)(=O)C3(C)CCOCC3)CCCCC1)C(C)(C)C)C2(C)C` [Compound 883-bq] it is less than 75 nM.
For the compound `C=CCNC(=O)C(=O)[C@H](CC1CC1)NC(=O)[C@@H]1[C@@H]2[C@H](CN1C(=O)[C@@H](NC(=O)NC1(CS(=O)(=O)C(C)(C)C)CCCCC1)C(C)(C)C)C2(Cl)Cl` [Compound 722], the inhibition constant Ki is less than 75 nM.
On the same count and under the same terms, the figure for `CCCCC(NC(=O)[C@@H]1[C@@H]2[C@H](CN1C(=O)[C@@H](NC(=O)NC1(C3CCCS3(=O)=O)CCCCC1)C(C)(C)C)C2(C)C)C(=O)C(=O)NC1CC1` (stereo partly drawn) [Compound 661] is less than 75 nM.
As for `CCCC(NC(=O)[C@@H]1[C@@H]2[C@H](CN1C(=O)[C@@H](NC(=O)NC1(CS(=O)(=O)C(C)(C)C)CCCCC1)C1(C)CCCCC1)C2(C)C)C(=O)C(=O)NC1CC1` (stereo partly drawn) [Compound 437], the Ki was less than 75 nM.
Still for that read-out and setting: the figure for `C=CCNC(=O)C(=O)C(CCC1CC1)NC(=O)[C@@H]1[C@@H]2[C@H](CN1C(=O)[C@@H](NC(=O)NC1(CS(=O)(=O)C3(CO)CCCCC3)CCCCC1)C(C)(C)C)C2(C)C` (stereo partly drawn) [Compound 867] is less than 75 nM; for `C=CCNC(=O)C(=O)[C@H](CC1CC1)NC(=O)[C@@H]1[C@@H]2[C@H](CN1C(=O)[C@@H](NC(=O)NC1(CS(=O)(=O)C3(C)CCOCC3)CCCCC1)C(C)(C)C)C2(C)C` [Compound 824] it is less than 75 nM; for `C=CCNC(=O)C(=O)C(CCCC)NC(=O)[C@@H]1C[C@@H](C#N)CN1C(=O)[C@@H](NC(=O)NC1(CS(=O)(=O)C(C)(C)C)CCCCC1)C(C)(C)C` (stereo partly drawn) [Compound 670] it is greater than 250 nM.
In the case of `CCCC[C@H](NC(=O)[C@@H]1[C@@H]2[C@H](CN1C(=O)[C@@H](NC(=O)NC1(CS(=O)(=O)C(C)(C)CC)CCCCC1)C1(C)CCCCC1)C2(C)C)C(=O)C(=O)NCCC` [Compound 883-ca], the Ki is less than 75 nM.
The same measure, in the same setting: the figure for `CCCNC(=O)C(=O)[C@H](CC1CC1)NC(=O)[C@@H]1[C@@H]2[C@H](CN1C(=O)[C@@H](NC(=O)NC1([C@H]3CCCS3(=O)=O)CCCCC1)C(C)(C)C)C2(Cl)Cl` [Compound 883-ec] is less than 75 nM; for `C=CCNC(=O)C(=O)C(CC1CC1)NC(=O)[C@@H]1[C@@H]2[C@H](CN1C(=O)[C@@H](NC(=O)NC1(CS(=O)(=O)C34CC5CC(CC(C5)C3)C4)CCCCC1)C1(C)CCCCC1)C2(C)C` (stereo partly drawn) [Compound 425] it is less than 75 nM; for `CC(=O)CNC(=O)C(=O)C(CC1CC1)NC(=O)[C@@H]1[C@@H]2[C@H](CN1C(=O)[C@@H](NC(=O)NC1(CS(=O)(=O)C(C)(C)C)CCCCC1)C1(C)CCCCC1)C2(C)C` (stereo partly drawn) [Compound 412] it is less than 75 nM.
As to `CC(C)(C)[C@H](NC(=O)NC1(CS(=O)(=O)C(C)(C)C)CCCCC1)C(=O)N1C[C@H]2[C@@H]([C@H]1C(=O)NC(CCCF)C(=O)C(=O)NC1CC1)C2(C)C` (stereo partly drawn) [Compound 603], the inhibitory constant (Ki) was less than 75 nM.
On the same count and under the same terms, the figure for `C=CCNC(=O)C(=O)C(CCC)NC(=O)[C@@H]1[C@@H]2[C@H](CN1C(=O)[C@@H](NC(=O)NC1(C3CCCS3(=O)=O)CCCCC1)C1(C)CCCCC1)C2(C)C` (stereo partly drawn) [Compound 612] is less than 75 nM; for `C=CCNC(=O)C(=O)[C@H](CCCC)NC(=O)[C@@H]1[C@@H]2[C@H](CN1C(=O)[C@@H](NC(=O)NC1(CS(=O)(=O)C(C)(C)C)CCCCC1)C(C)(C)C)C2(Cl)Cl` [Compound 755] it is less than 75 nM.
The same measure, in the same setting: the figure for `CCC[C@H](NC(=O)[C@@H]1CC2(CN1C(=O)[C@@H](NC(=O)NC1([C@@H]3CCCS3(=O)=O)CCCCC1)C1(C)CCCCC1)SCCCS2)C(=O)C(=O)NC1CC1` [Compound 846] is less than 75 nM; for `C=CCNC(=O)C(=O)C(CCC1CC1)NC(=O)[C@@H]1[C@@H]2[C@H](CN1C(=O)[C@@H](NC(=O)NC1(CS(=O)(=O)C(C)(C)COC3CCCCO3)CCCCC1)C1(C)CCCCC1)C2(C)C` (stereo partly drawn) [Compound 642] it is less than 75 nM.
The same measure, in the same setting: the figure for `CCCC(NC(=O)[C@@H]1[C@@H]2[C@H](CN1C(=O)[C@@H](NC(=O)NC1(CS(=O)(=O)C(C)(C)C)CCCCC1)C(C)(C)C)C2(C)C)C(=O)C(=O)NCc1cccnc1` (stereo partly drawn) [Compound 738] is less than 75 nM.
For the compound `CC1([C@H](NC(=O)NC2(CS(=O)(=O)C(C)(C)C)CCCCC2)C(=O)N2C[C@H]3[C@@H]([C@H]2C(=O)NC(CCC2CC2)C(=O)C(=O)NC2CC2)C3(C)C)CCCC1` (stereo partly drawn) [Compound 598], the Ki was less than 75 nM.
The same measure, in the same setting: the figure for `CCCC(C)(C)S(=O)(=O)CC1(NC(=O)N[C@H](C(=O)N2C[C@H]3[C@@H]([C@H]2C(=O)NC(CC2CC2)C(=O)C(=O)NC2CC2)C3(C)C)C(C)(C)C)CCCCC1` (stereo partly drawn) [Compound 475] is less than 75 nM.
Same read-out and setting: the figure for `CCCC[C@H](NC(=O)[C@@H]1[C@@H]2[C@H](CN1C(=O)[C@@H](NC(=O)NC1(C3CCCS3(=O)=O)CCCCC1)C1(C)CCCCC1)C2(C)C)C(=O)C(=O)NC1CC1` (stereo partly drawn) [Compound 799] is less than 75 nM; for `CCNC(=O)C(=O)[C@H](CCC1CC1)NC(=O)[C@@H]1[C@@H]2[C@H](CN1C(=O)[C@@H](NC(=O)NC1([C@H](C)S(=O)(=O)C(C)(C)C)CCCCC1)C(C)(C)C)C2(C)C` [Compound 883-ek] it is less than 75 nM.
Still for that read-out and setting: the figure for `CCCC[C@H](NC(=O)[C@@H]1[C@@H]2[C@H](CN1C(=O)[C@@H](NC(=O)NC1([C@H]3CCCS3(=O)=O)CCCCC1)C(C)(C)C)C2(C)C)C(=O)C(=O)NCC` [Compound 883-ck] is less than 75 nM.

The same assay, now with this note: Table 4A; read-out: Ki* Range.
As to `CC(C)[C@@H](CS(=O)(=O)N(C)C(C)(C)C)NC(=O)N[C@H](C(=O)N1C[C@H]2[C@@H]([C@H]1C(=O)NC(CC1CC1)C(=O)C(N)=O)C2(C)C)C(C)(C)C` (stereo partly drawn) [Compound 1100], the Ki was less than 75 nM.

The same assay, now with this note: Table 5; read-out: Ki*.
In the case of `C=CCNC(=O)C(=O)C(CC1CC1)NC(=O)[C@@H]1C2[C@H](CN1C(=O)[C@@H](NC(=O)NC1(CS(=O)(=O)C(C)(C)C)CCCCC1)C1(C)CCCCC1)C2(C)C` (stereo partly drawn), the Ki was 10 nM.
With `C#CCCC(NC(=O)[C@@H]1C2[C@H](CN1C(=O)[C@@H](NC(=O)NC1(CS(=O)(=O)C(C)(C)C)CCCCC1)C(C)(C)C)C2(C)C)C(=O)C(=O)NCC=C` (stereo partly drawn), the Ki stood at 2 nM.
